Out of some 52,000 compounds screened, about 4,300 (8.3%) were called active. Cut-off read from the data, not from the text of the source: active = survival mostly below about 52% (no sharp cut-off); inactive = mostly above about 56%. Some of the results follow.

In this assay the test system is DeltatarO mutant. The assay can be described thus: S. aureus survival, RN4220 and DeltatarO strains – OD600, teichoic acid synthesis inhibitors, primary screen (AID 463173). Particulars: S. aureus RN4220 wild type/DeltatarO growth, OD600, 18 h, stronger effect = lower value, screened at 18.75 µg/mL (by protocol).
With `CCOC(=O)c1ccc(NC(=O)CC2C(=O)N(c3cccc(OC)c3)C(=O)N2C2CCCCC2)cc1` (centres undefined), the survival was inactive: 63%.

For `Cc1cc(C)nc(SCCSc2nc(C)cc(C)n2)n1`, the survival is inactive: 87%. Regarding `COc1nc(N2CCCCCC2)nc(N2CCCCCC2)n1`, the survival is inactive: 66%. The figure for `Cc1ccc(OCCn2cc(C(=O)C3CCCCC3)c3ccccc32)cc1` is active: 3%; for `O=S(=O)(N1CCCCC1)N1CCN(c2ccc(F)cc2)CC1` it is active: 65%; for `CC1=C(C(=O)Nc2ccccc2C)C(c2ccncc2)n2nc(SCc3ccccc3)nc2N1` (centres undefined) it is inactive: 65%. For `COc1cc(C(=O)N2CCc3ccccc32)cc(OC)c1OC`, the survival is inactive: 104%. The value for `COc1cn(CC(=O)Nc2ccc(F)cc2)c(CN2CCCCC2)cc1=O` was inactive: 90%; that for `COc1cccc(CSc2nc3n(n2)C(c2cccs2)C(C(=O)Nc2ccccc2C)=C(C)N3)c1` (centres undefined) was inactive: 78%. Turning to `CCOC(=O)c1c(N)n(-c2ccc(Cl)c(Cl)c2)c2nc3ccccc3nc12`, the survival is inactive: 94%. As for `O=C(O)CSc1nnc(-c2ccccc2)n1-c1ccccc1`, the survival is inactive: 95%.

Consider `CCN1CCN(c2cc(C)c3cc(NC(=O)c4cccc(C(F)(F)F)c4)ccc3n2)CC1`, for which the survival is inactive: 63%. The figure for `Cc1ccc(NC(=O)Cn2c(=O)n(-c3ccc(Cl)c(Cl)c3)c(=O)c3c(C)c(C)sc32)c(C)c1` is inactive: 95%; for `Cc1cc(S(=O)(=O)N2CCOCC2)ccc1N=Cc1c(C)[nH]n(-c2ccc(Cl)cc2)c1=O` it is inactive: 90%. The figure for `Cc1cccc(Cn2c(CN3CCC(C(=O)NCc4cccnc4)CC3)cc3ccccc32)c1` is inactive: 74%. The value for `O=C(NCc1ccc(Cl)cc1)c1ccc2c(Cl)c3c(nc2c1)CCCC3` was inactive: 70%; that for `Cc1ccc(OCCSc2nnc(-c3cccs3)o2)cc1Cl` was active: 45%; that for `Cc1ccc(C)c(N2CCN(C(=O)CCC(=O)Nc3ccc4nc(N5CCCCC5)cc(C)c4c3)CC2)c1` was inactive: 51%.

As for `CC(=O)Nc1ccc(NC(=O)C2CCN(c3c(NC(C)=O)c(C)nn3-c3ccccc3)CC2)cc1`, the survival is inactive: 67%.

For the compound `CCOC(=O)c1ccc2nc(C)cc(Nc3cccc(C(=O)O)c3)c2c1`, the survival is inactive: 173%.

On to `CCOC(=O)c1c(C)n(-c2ccccc2)c2ccc(OC(=O)c3ccccc3NC(=O)C(C)C)cc12`, for which the survival was active: 47%. The value for `CCOC(=O)c1cccc(NC(=O)CCCn2nc(C)c3c(C)n(-c4ccccc4)nc3c2=O)c1` was inactive: 58%; that for `COc1ccc(Cl)cc1NC(=O)Cn1ncc2c3ccccc3n(C)c2c1=O` was inactive: 135%; that for `Cc1ccc2[nH]c3c(=O)n(CC(=O)NCc4ccco4)ncc3c2c1` was inactive: 67%.

The values are drawn from PubChem BioAssay AID463173 (ICCB-Longwood Screening Facility, Harvard Medical School, 2010).
